The test system of one assay is HSkMC. The assay is described as follows: cytotoxicity call (relative viability < 0.9). As to conditions: 10 µM.
The next assay relates to S. aureus RN4220. As to the kind of experiment: growth inhibition call (relative growth <= 0.2). To be noted: 50 µM.

Among the data in the antibiotic and cytotoxicity screens of Wong et al. (2023) are cytotoxicity call and growth inhibition call values, retold here.

The structures appear in SMILES notation. The list shows a part of the results.

On to `C[C@H](CO)N1C[C@H](C)[C@@H](CN(C)Cc2ccc(-c3ccccc3)cc2)Oc2ccc(NC(=O)Nc3ccc(C(F)(F)F)cc3)cc2C1=O`, for which the cytotoxicity call in the assay on HSkMC was “active”. The growth inhibition call in the assay with S. aureus RN4220 is “inactive”.
In the case of `Cc1ccc(-c2ccc3c(c2)O[C@@H](CN(C)C(=O)CN(C)C)[C@@H](C)CN([C@H](C)CO)S3(=O)=O)cc1`, the cytotoxicity call in the assay on HSkMC was “inactive”. Further, the growth inhibition call in the assay on S. aureus RN4220 was “inactive”.
`COc1ccc(S(=O)(=O)N(C)C[C@H]2OCCCC[C@H](C)Oc3ccc(NC(=O)Nc4c(C)noc4C)cc3C(=O)N([C@H](C)CO)C[C@@H]2C)cc1`: the cytotoxicity call in the assay with HSkMC was “inactive”. For the same molecule, the growth inhibition call in the assay on S. aureus RN4220 is “inactive”.
In the case of `C[C@H]1CCCCO[C@H](CN(C)C(=O)Nc2ccc(C(F)(F)F)cc2)[C@@H](C)CN([C@@H](C)CO)C(=O)c2cc(N(C)C)ccc2O1`, the cytotoxicity call with HSkMC was “inactive”. Moreover, the growth inhibition call in the assay on S. aureus RN4220 is “inactive”.
As for `Cc1ccc(S(=O)(=O)N(C)C[C@H]2Oc3cc(C#Cc4ccccc4)ccc3S(=O)(=O)N([C@@H](C)CO)C[C@H]2C)cc1`, the cytotoxicity call with HSkMC was “inactive”. Moreover, the growth inhibition call in the assay on S. aureus RN4220 is “inactive”.
For the molecule `CC(=O)N(C)C[C@@H]1Oc2cc(C#CCN(C)C)ccc2S(=O)(=O)N([C@@H](C)CO)C[C@H]1C`, the cytotoxicity call in the assay on HSkMC is “inactive”. Also, the growth inhibition call in the assay on S. aureus RN4220 was “inactive”.
With `O=C(C[C@H]1C=C[C@@H](NS(=O)(=O)c2ccc(F)cc2)[C@@H](CO)O1)NCc1ccc(Cl)c(Cl)c1`, in the assay on HSkMC, the cytotoxicity call was “inactive”. In the assay on S. aureus RN4220, the growth inhibition call was “inactive”.
Consider `C[C@@H]1CN([C@@H](C)CO)C(=O)Cc2cc(NC(=O)Nc3ccc(C(F)(F)F)cc3)ccc2O[C@H]1CN(C)Cc1ccccc1`, for which the cytotoxicity call in the assay with HSkMC was “inactive”. In addition, the growth inhibition call in the assay on S. aureus RN4220 was “inactive”.
Regarding `C[C@H]1CN([C@@H](C)CO)C(=O)Cc2cc(NC(=O)C3CC3)ccc2O[C@@H]1CN(C)Cc1ccc2c(c1)OCO2`, the cytotoxicity call in the assay on HSkMC was “inactive”. Further, the growth inhibition call with S. aureus RN4220 is “inactive”.
For `COc1ccc(NC(=O)N(C)C[C@H]2Oc3c(NC(=O)Nc4cccc5ccccc45)cccc3C(=O)N([C@H](C)CO)C[C@@H]2C)cc1`, the cytotoxicity call in the assay with HSkMC is “inactive”. Also, the growth inhibition call in the assay with S. aureus RN4220 was “inactive”.
Regarding `O=C(NC1CCCCCCC1)c1ccccc1-c1ccccc1`, the cytotoxicity call in the assay on HSkMC is “inactive”. Further, in the assay with S. aureus RN4220, the growth inhibition call is “inactive”.
With `C[C@@H]1CN([C@@H](C)CO)S(=O)(=O)c2ccc(-c3ccncc3)cc2O[C@@H]1CN(C)C(=O)c1cccc(F)c1`, the cytotoxicity call in the assay on HSkMC is “inactive”. Also, in the assay on S. aureus RN4220, the growth inhibition call was “inactive”.
As for `COc1ccccc1CN1C(=O)c2ccccc2[C@@]2(Cc3ccccc3N(C(C)C)C2=O)[C@@H]1c1ccc(CO)cc1`, the cytotoxicity call with HSkMC was “inactive”. In addition, in the assay on S. aureus RN4220, the growth inhibition call was “inactive”.
Turning to `NC(=O)N1C(=O)[C@H]2[C@H](C1=O)[C@H]1C=C(CCCO)[C@@H]2[C@H](c2cccs2)N1Cc1cc2c(cc1Br)OCO2`, in the assay on HSkMC, the cytotoxicity call is “inactive”. Also, the growth inhibition call in the assay on S. aureus RN4220 was “inactive”.
For the molecule `CC(C)(Sc1cc(C(C)(C)C)c(O)c(C(C)(C)C)c1)Sc1cc(C(C)(C)C)c(O)c(C(C)(C)C)c1`, the cytotoxicity call in the assay on HSkMC is “inactive”. Further, the growth inhibition call in the assay with S. aureus RN4220 is “inactive”.
On to `CC(=O)Nc1ccc(C(=O)NN)cc1`, for which the cytotoxicity call in the assay with HSkMC is “inactive”. In the assay with S. aureus RN4220, the growth inhibition call was “inactive”.
`CC(=O)N[C@@H]1CC[C@H](CCNC(=O)C2CC2)O[C@H]1CO`: in the assay with HSkMC, the cytotoxicity call was “inactive”. The growth inhibition call in the assay with S. aureus RN4220 was “inactive”.
As to `C[C@@H]1CN([C@H](C)CO)C(=O)c2cccc(NS(=O)(=O)c3ccccc3)c2O[C@@H]1CN(C)S(=O)(=O)c1ccccc1`, the cytotoxicity call in the assay with HSkMC was “inactive”. The growth inhibition call in the assay with S. aureus RN4220 is “inactive”.
For `Cc1ccc(S(=O)(=O)Nc2ccc3c(c2)CC(=O)N([C@@H](C)CO)C[C@@H](C)[C@@H](CN(C)Cc2ccncc2)O3)cc1`, in the assay on HSkMC, the cytotoxicity call is “inactive”. The growth inhibition call with S. aureus RN4220 is “inactive”.
On to `N#C[C@H]1N[C@H](CO)[C@H]1c1ccccc1`, for which, in the assay on HSkMC, the cytotoxicity call is “inactive”. For the same molecule, the growth inhibition call with S. aureus RN4220 is “inactive”.
Take `C[C@@H]1CCCCO[C@H](CN(C)Cc2ccc3c(c2)OCO3)[C@H](C)CN([C@@H](C)CO)C(=O)c2cc(NC(=O)Nc3ccccc3)ccc2O1`: the cytotoxicity call with HSkMC is “inactive”. In the assay on S. aureus RN4220, the growth inhibition call is “inactive”.
For `C[C@H](CO)N1C[C@H](C)[C@@H](CN(C)S(C)(=O)=O)Oc2c(NC(=O)CCCCCC(=O)Nc3ccccc3N)cccc2C1=O`, the cytotoxicity call with HSkMC was “inactive”. Further, the growth inhibition call with S. aureus RN4220 is “inactive”.
As to `COc1ccc(NC(=O)Nc2ccc3c(c2)C(=O)N([C@@H](C)CO)C[C@@H](C)[C@@H](CN(C)S(=O)(=O)c2ccc(C)cc2)OCCCC[C@H](C)O3)cc1`, the cytotoxicity call with HSkMC was “inactive”. Further, the growth inhibition call in the assay on S. aureus RN4220 was “inactive”.
Take `O=C(C[C@H]1CC[C@@H]2NC[C@H](O)COC[C@H]2O1)NCCN1CCCCC1`: the cytotoxicity call in the assay with HSkMC was “inactive”. The growth inhibition call in the assay with S. aureus RN4220 is “inactive”.
Regarding `COCCCOc1ccnc(CS(=O)c2nc3ccccc3[n-]2)c1C.[Na+]` (stereo not given), the cytotoxicity call in the assay on HSkMC is “inactive”. Moreover, in the assay with S. aureus RN4220, the growth inhibition call was “inactive”.
`CCS(=O)(=O)Nc1ccc2c(c1)C(=O)N(C)[C@H]1CC[C@H](CC(=O)NCc3ccc(OC)cc3)O[C@@H]1CO2`: the cytotoxicity call in the assay with HSkMC was “inactive”. In addition, the growth inhibition call with S. aureus RN4220 is “inactive”.
In the case of `Cl.N=C(N)n1cccn1`, the cytotoxicity call in the assay on HSkMC (human skeletal muscle cells) was “inactive”. The growth inhibition call with S. aureus RN4220 was “active”.
Take `CCS(=O)(=O)N1C[C@]2(CCN(CC2)Cc2cccc(c2)OC)c2c([nH]c3cc(ccc23)OC)[C@@H]1CO`: the cytotoxicity call in the assay with HSkMC is “inactive”. Besides, the growth inhibition call in the assay on S. aureus RN4220 was “inactive”.
For the molecule `C[C@@H]1CCCCO[C@@H](CN(C)CC2CCCCC2)[C@H](C)CN([C@H](C)CO)C(=O)c2cc(NC(=O)Cc3ccccc3)ccc2O1`, the cytotoxicity call with HSkMC is “inactive”. Further, the growth inhibition call in the assay on S. aureus RN4220 was “inactive”.
Consider `COc1cccc(C(=O)Nc2ccc3c(c2)C(=O)N(C)[C@H]2CC[C@@H](CC(=O)NCCCN4CCOCC4)O[C@@H]2CO3)c1`, for which the cytotoxicity call in the assay with HSkMC is “inactive”. For the same molecule, the growth inhibition call in the assay with S. aureus RN4220 is “inactive”.
